Consider 57 compounds from publication PMC4336329 (PLoS ONE, 2015).

The whole screen tested about 310,000 compounds, of which about 2,200 (0.71%) showed an effect of 50% or more. The effect is printed as a negative number. The list shows a part of the results.

This assay deals with human ether-à-go-go-related gene (hERG) potassium channel (human, UniProt Q12809). Nature of the assay: primary screen, population patch clamp on CHO cells stably expressing hERG.
Chain of human ether-à-go-go-related gene (hERG) potassium channel (Q12809 whole entry, looked up): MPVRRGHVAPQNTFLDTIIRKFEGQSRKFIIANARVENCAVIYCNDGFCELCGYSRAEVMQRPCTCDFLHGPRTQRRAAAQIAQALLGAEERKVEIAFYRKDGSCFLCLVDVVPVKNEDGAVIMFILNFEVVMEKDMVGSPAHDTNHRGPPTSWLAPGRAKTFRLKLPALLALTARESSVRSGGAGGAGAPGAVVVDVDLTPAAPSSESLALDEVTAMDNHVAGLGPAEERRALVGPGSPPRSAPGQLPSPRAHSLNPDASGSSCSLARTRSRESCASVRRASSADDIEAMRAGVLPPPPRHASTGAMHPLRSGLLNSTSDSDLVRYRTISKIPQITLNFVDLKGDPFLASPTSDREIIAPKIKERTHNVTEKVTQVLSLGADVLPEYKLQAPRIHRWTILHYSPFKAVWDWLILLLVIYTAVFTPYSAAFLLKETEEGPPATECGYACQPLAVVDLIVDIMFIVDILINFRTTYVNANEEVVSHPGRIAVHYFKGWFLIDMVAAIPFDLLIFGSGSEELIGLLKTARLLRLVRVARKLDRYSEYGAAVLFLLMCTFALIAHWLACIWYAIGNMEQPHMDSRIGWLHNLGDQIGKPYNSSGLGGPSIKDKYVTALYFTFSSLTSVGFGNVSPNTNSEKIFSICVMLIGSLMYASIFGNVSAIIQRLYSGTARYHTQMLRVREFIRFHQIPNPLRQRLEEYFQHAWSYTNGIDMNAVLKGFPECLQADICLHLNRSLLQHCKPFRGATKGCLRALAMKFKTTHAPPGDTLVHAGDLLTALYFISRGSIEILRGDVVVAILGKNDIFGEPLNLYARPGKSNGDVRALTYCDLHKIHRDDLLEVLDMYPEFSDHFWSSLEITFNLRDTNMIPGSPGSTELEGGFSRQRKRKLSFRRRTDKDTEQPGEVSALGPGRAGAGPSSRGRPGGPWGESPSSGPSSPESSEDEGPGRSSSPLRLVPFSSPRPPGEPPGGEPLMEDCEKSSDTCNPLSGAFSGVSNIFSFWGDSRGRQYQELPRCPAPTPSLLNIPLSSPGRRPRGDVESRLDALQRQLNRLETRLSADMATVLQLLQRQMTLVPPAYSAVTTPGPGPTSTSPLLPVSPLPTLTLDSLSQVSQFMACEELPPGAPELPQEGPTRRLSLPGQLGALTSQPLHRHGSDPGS
As for `CC(=O)Nc1cccc(C(=O)OC(C)C(=O)NC(=O)NC2CCCCC2)c1` (stereo not drawn), the “hERG current change (%, negative = inhibition) at 1uM” value is recorded as 5.18%.

As to `COc1ccccc1-c1ccc(SCC(=O)N2CCOCC2)nn1`, the “hERG current change (%, negative = inhibition) at 1uM” value came to 5.03%.

For `Cc1sc(NC(=O)C2=COCCO2)c(C(N)=O)c1C`, the “hERG current change (%, negative = inhibition) at 1uM” value stood at 10.4%.

For `CCC(=O)C1CCCN(C(=O)c2ccc3nc(-c4cccc(OC)c4)oc3c2)C1` (stereo not drawn), the “hERG current change (%, negative = inhibition) at 1uM” value is -3.75%.

Turning to `COc1ccc(C2CC2/C(=N/O)c2ccccc2)cc1` (stereo not drawn), the “hERG current change (%, negative = inhibition) at 1uM” value came out at 14.2%.

As to `Cc1c(NC(=O)C2CCCN2S(=O)(=O)c2cccc3nsnc23)cccc1C(=O)O` (stereo not drawn), the “hERG current change (%, negative = inhibition) at 1uM” value was 10.5%.

On to `Nc1ccccc1-c1nc2ccccc2s1`, for which the “hERG current change (%, negative = inhibition) at 1uM” value turned out to be 6.32%.

In the case of `Cc1ccnc2nc(C(=O)Nc3nc4ccccc4s3)nn12`, the “hERG current change (%, negative = inhibition) at 1uM” value is reported as 3.78%.

On to `COc1ccc(/C=C2\SC(=S)N(N3CCOCC3)C2=O)c(OC)c1`, for which the “hERG current change (%, negative = inhibition) at 1uM” value is given as 10.2%.

For `O=C(c1ccccc1)C1CCN(C(=O)c2ccco2)CC1`, the “hERG current change (%, negative = inhibition) at 1uM” value was determined as 7.07%.

Consider `CC(=O)Nc1ccc(/C=N/NC(=O)c2cc(-c3ccco3)nc3ccccc23)cc1`, for which the “hERG current change (%, negative = inhibition) at 1uM” value was 12.6%.

For `Cc1cc(OCC(=O)O/N=C(\N)c2ccccc2)cc(C)c1Cl`, the “hERG current change (%, negative = inhibition) at 1uM” value is -0.13%.

On to `Cl.O=C(CCN1CCc2ccccc21)c1ccc2c(c1)OCCO2`, for which the “hERG current change (%, negative = inhibition) at 1uM” value worked out at 9.89%.

For the compound `OCC[C@H]1C[C@H](O)[C@@H](O)[C@@]2(Cc3ccccc3CO2)O1`, the “hERG current change (%, negative = inhibition) at 1uM” value is on record as 13.7%.

In the case of `COc1ccc(/C=C2\SC(=O)N(CC(=O)Nc3cccc(C)c3)C2=O)cc1O`, the “hERG current change (%, negative = inhibition) at 1uM” value turned out to be 14.8%.

Take `COc1ccc(OCCSc2nc3ccccc3n2CCC(=O)O)cc1`: the “hERG current change (%, negative = inhibition) at 1uM” value was 11.2%.

Regarding `COc1ccccc1N1CCN(C(=O)c2ccc3[nH]c4c(c3c2)CCCC4)CC1`, the “hERG current change (%, negative = inhibition) at 1uM” value is recorded as 15.1%.

As for `Cc1nn(C)cc1/C=N/NC(=O)c1sc2ccccc2c1Cl`, the “hERG current change (%, negative = inhibition) at 1uM” value was 7.54%.

For `COc1ccccc1/C=N/Nc1cc(N(C)C)nc(N(C)C)n1`, the “hERG current change (%, negative = inhibition) at 1uM” value is reported as -3.63%.

`CC1=NN(C(C#N)c2ccccc2C)C(c2ccccc2)C1` (stereo not drawn): the “hERG current change (%, negative = inhibition) at 1uM” value came out at 9.72%.

For the compound `COc1ccc(C(=O)NC2CCCc3ccccc32)cc1[N+](=O)[O-]` (stereo not drawn), the “hERG current change (%, negative = inhibition) at 1uM” value is 4.45%.

Turning to `Cc1ccccc1C(O)(Cc1ccccc1)C1CN2CCC1CC2.Cl` (stereo not drawn), the “hERG current change (%, negative = inhibition) at 1uM” value is listed as -28.8%.

On to `CCCCC(CC)COC(=O)c1ccc(N(C)C)cc1` (stereo not drawn), for which the “hERG current change (%, negative = inhibition) at 1uM” value was determined as 10.1%.

In the case of `CCCCCn1c(C)c2c(OCC)cccc(=O)c2c1C`, the “hERG current change (%, negative = inhibition) at 1uM” value is recorded as -12.5%.

For the compound `Cc1nn(C)c(Oc2ccccc2)c1CCNS(=O)(=O)c1ccc(F)cc1`, the “hERG current change (%, negative = inhibition) at 1uM” value was 17.1%.

Take `CCOc1cc(C(=O)O/N=C(\N)c2ccc([N+](=O)[O-])cc2)cc(OCC)c1OCC`: the “hERG current change (%, negative = inhibition) at 1uM” value is -10.8%.

As to `CCCC(=O)Nc1nnc(CC(=O)N2CCCC2)s1`, the “hERG current change (%, negative = inhibition) at 1uM” value was found to be 5.29%.

Regarding `CC(C)CNS(=O)(=O)c1ccc(CCC(=O)NC2CCCC2)cc1`, the “hERG current change (%, negative = inhibition) at 1uM” value was 7.91%.

As to `CCn1nnnc1SCC(=O)NCc1cccs1`, the “hERG current change (%, negative = inhibition) at 1uM” value is given as 11.8%.

Take `COc1ccc(-n2c(SCC(=O)Nc3nccs3)nnc2-c2ccccc2)cc1`: the “hERG current change (%, negative = inhibition) at 1uM” value is 13.9%.

On to `CN(C)/C=C/C(=O)c1cc(N2CCOCC2)ccc1[N+](=O)[O-]`, for which the “hERG current change (%, negative = inhibition) at 1uM” value is 4.18%.

Turning to `N/C(Cc1ccc(Cl)cc1Cl)=N\OC(=O)c1cccs1`, the “hERG current change (%, negative = inhibition) at 1uM” value is on record as -0.55%.

Regarding `Cc1ccc2nc(Cl)nc(-c3ccccc3)c2c1`, the “hERG current change (%, negative = inhibition) at 1uM” value stood at 7.36%.

Turning to `CC(C)[C@H](NC(=O)[C@H](Cc1ccccc1)n1c(=O)[nH]c2ccccc2c1=O)C(=O)N[C@@H](Cc1ccccc1)C(=O)O`, the “hERG current change (%, negative = inhibition) at 1uM” value was 10.1%.

For the compound `O=C(O)c1cccnc1SC1CC(=O)N(c2cccc3ccccc23)C1=O` (stereo not drawn), the “hERG current change (%, negative = inhibition) at 1uM” value is recorded as 9.56%.

On to `CCCCNCC1CCCO1` (stereo not drawn), for which the “hERG current change (%, negative = inhibition) at 1uM” value turned out to be 12.1%.

In the case of `O=C(CCN1CCN(c2ccc(F)cc2)CC1)Nc1ccc(F)cc1`, the “hERG current change (%, negative = inhibition) at 1uM” value was -16.8%.

Regarding `CCN(CC)CCNC(=O)c1ccc(NC(=O)c2cn(-c3ccccc3)nc2-c2cccs2)cc1`, the “hERG current change (%, negative = inhibition) at 1uM” value is recorded as -8.27%.

For the compound `COc1ccc(OC)c2[nH]c(=O)c(CCNC(=O)COc3ccccc3)cc12`, the “hERG current change (%, negative = inhibition) at 1uM” value amounted to 3.48%.

On to `Cc1nn(C(C)(C)C)c(OC(=O)c2ccc(Br)o2)c1Sc1ccccc1`, for which the “hERG current change (%, negative = inhibition) at 1uM” value is 1.26%.

In the case of `O=C(Nc1ccccc1N1CCOCC1)c1ccc(N2CCOCC2)c([N+](=O)[O-])c1`, the “hERG current change (%, negative = inhibition) at 1uM” value was 5.28%.

For `O=C(COC(=O)CCNS(=O)(=O)c1cccs1)Nc1ccccc1`, the “hERG current change (%, negative = inhibition) at 1uM” value came to 4.28%.

Take `Cc1cc(NC(=O)CCCn2nc(C)c([N+](=O)[O-])c2C)no1`: the “hERG current change (%, negative = inhibition) at 1uM” value is reported as 10.7%.

For `O=S(=O)(c1ccc(F)c(F)c1)N1CCC2(CC1)OCCO2`, the “hERG current change (%, negative = inhibition) at 1uM” value was 5.71%.

As for `COc1ccccc1N1CCN(C(=O)c2ccc(NC(C)=O)cc2)CC1`, the “hERG current change (%, negative = inhibition) at 1uM” value was determined as 10.5%.

As for `Cc1cc(NC(=O)COC(=O)c2c(C)nn(-c3ccccc3)c2C)no1`, the “hERG current change (%, negative = inhibition) at 1uM” value was found to be 10.4%.

As for `O=C(NC1CCN(Cc2ccccc2)CC1)C1CCN(S(=O)(=O)c2cccc([N+](=O)[O-])c2)CC1`, the “hERG current change (%, negative = inhibition) at 1uM” value amounted to 11.3%.

As for `Cc1c(C)c2ccc(O[C@@H]3O[C@H](CO)[C@H](O)[C@H](O)[C@H]3O)cc2oc1=O`, the “hERG current change (%, negative = inhibition) at 1uM” value was 6.5%.

`O=C(COc1ncnc2ccccc12)N1CCN(C(=O)c2ccco2)CC1`: the “hERG current change (%, negative = inhibition) at 1uM” value is given as -2.61%.

Turning to `CC(C)(C)C(=O)Cn1ncc(N2CCOCC2)c(Cl)c1=O`, the “hERG current change (%, negative = inhibition) at 1uM” value is listed as -3.01%.

Regarding `CCN(CC)c1ccc(C(=O)OCC(=O)NC(C)(C)C)cc1`, the “hERG current change (%, negative = inhibition) at 1uM” value is listed as 7.8%.

`Cc1cc(Cl)ccc1C(=O)C1CCCN(C(=O)CCN2CCCO2)C1` (stereo not drawn): the “hERG current change (%, negative = inhibition) at 1uM” value is reported as 6.31%.

Consider `CCc1ccc(/C=C2\SC(=S)N(CCC(=O)N3CCN(C)CC3)C2=O)cc1`, for which the “hERG current change (%, negative = inhibition) at 1uM” value came out at 11.7%.

Consider `COc1ccccc1Nc1nc(NCC2CCCO2)c2ccccc2n1.Cl` (stereo not drawn), for which the “hERG current change (%, negative = inhibition) at 1uM” value is recorded as -28.9%.

With `COc1ccc(OCC(=O)N2CCCC(CO)(CCOc3ccccc3)C2)cc1` (stereo not drawn), the “hERG current change (%, negative = inhibition) at 1uM” value is reported as -9.42%.

For the compound `CCOc1ccc(-n2c(N)c(-c3nc4ccccc4[nH]3)sc2=S)cc1`, the “hERG current change (%, negative = inhibition) at 1uM” value stood at 9.61%.

For the compound `COC(=O)C1=CN(Cc2ccc(F)cc2)C=C(C(=O)OC)C1c1cc(OC)c(OC)c(OC)c1`, the “hERG current change (%, negative = inhibition) at 1uM” value worked out at 4.3%.
